Experimental findings from US8586505B2 (SDS Biotech K. K., priority 2009, dated 2013) are described below.

What all share (assay): whole plant or invertebrate
One experiment concerns Spodptera litura. The conditions noted are these: Brassica rapa, 48 h, read-out: Determination (mortality rate). On the procedure:
A Chinese cabbage leaf section having a diameter of 3 cm was immersed in an agent solution prepared by diluting a 10% wettable powder of each compound shown in Table 1 to a concentration of 500 ppm, and it was then subjected to air drying. Thereafter, the Chinese cabbage leaf was placed in a plastic petri dish, and 10 third-instar larvae of Spodptera litura were released therein. Two days after the treatment, the number of deaths was counted, and the mortality rate was then calculated.

The test system of the next experiment is Aphis gossypii. The conditions noted are these: in Cucumis sativus, 48 h, read-out: Determination (mortality rate).
In experiment [1] the test system is Tetranychus urticae female adults. The conditions noted are these: 48 h, read-out: Determination (mortality rate). As to the method:
A kidney bean leaf section having a diameter of 3 cm was placed on a wet sponge in a plastic cup. Thereafter, ten female adults of Tetranychus urticae were released into the plastic cup. 0.4 ml each of an agent solution prepared by diluting a 10% wettable powder of each compound shown in Table 1 to a concentration of 250 ppm was sprayed thereto. Two days later, the number of deaths was counted, and the mortality rate was then calculated.

The mortality is the percentage killed. For the compound `Fc1ccc(C#CCCNc2ncnc3sccc23)cc1` [compound 13], the mortality at 500 ppm with Spodptera litura was 60 to 80%. In the experiment with Aphis gossypii, the mortality at 250 ppm fell in the range of 80 to 95%.

In the case of `Clc1ccccc1C#CCCNc1ncnc2sccc12` [compound 14], the mortality at 500 ppm in the experiment on Spodptera litura lay in the range of 60 to 80%. Moreover, the mortality at 250 ppm with Aphis gossypii is greater than 95%.

As to `Clc1ccc(C#CCCNc2ncnc3sccc23)cc1` [compound 16], the mortality at 500 ppm with Spodptera litura fell in the range of 60 to 80%. Also, in the experiment with Aphis gossypii, the mortality at 250 ppm lay in the range of 60 to 80%.

With `Cc1ccc(C#CCCNc2ncnc3sccc23)cc1` [compound 19], in the experiment with Spodptera litura, the mortality at 500 ppm was 60 to 80%. For the same compound, the mortality at 250 ppm with Aphis gossypii is greater than 95%.

As to `FC(F)(F)c1ccc(C#CCCNc2ncnc3sccc23)cc1` [compound 27], in the experiment on Spodptera litura, the mortality at 500 ppm was 80 to 95%. The mortality at 250 ppm in experiment [1] is 60 to 80%.

With `C(#Cc1ccoc1)CCNc1ncnc2sccc12` [compound 52], the mortality at 500 ppm in the experiment on Spodptera litura fell in the range of 60 to 80%.

As for `C(#Cc1ccccn1)CCNc1ncnc2sccc12` [compound 55], the mortality at 500 ppm with Spodptera litura lay within 60 to 80%.

With `FCc1ccccc1C#CCCNc1ncnc2ccccc12` [compound 99], the mortality at 500 ppm in the experiment on Spodptera litura was greater than 95%. Besides, the mortality at 250 ppm in the experiment on Aphis gossypii is greater than 95%.

Regarding `N#Cc1ccccc1C#CCCNc1ncnc2ccccc12` [compound 102], in the experiment with Spodptera litura, the mortality at 500 ppm is greater than 95%. The mortality at 250 ppm in experiment [1] was 60 to 80%; with Aphis gossypii it was greater than 95%.

Consider `FC(F)=Cc1ccc(C#CCCNc2ncnc3ccccc23)cc1` [compound 113], for which, in the experiment with Spodptera litura, the mortality at 500 ppm fell in the range of 60 to 80%. The mortality at 250 ppm (in experiment [1]; in the experiment on Aphis gossypii) was greater than 95% in each case.

Regarding `COCOc1ccc(C#CCCNc2ncnc3ccccc23)cc1` [compound 121], the mortality at 500 ppm with Spodptera litura is 60 to 80%.

In the case of `OCc1ccccc1C#CCCNc1ncnc2ccccc12` [compound 130], the mortality at 500 ppm with Spodptera litura is 60 to 80%. In the experiment with Aphis gossypii, the mortality at 250 ppm is 80 to 95%.

Consider `COCc1ccccc1C#CCCNc1ncnc2ccccc12` [compound 133], for which the mortality at 500 ppm in the experiment on Spodptera litura was greater than 95%. For the same compound, the mortality at 250 ppm (in experiment [1]; with Aphis gossypii) was greater than 95% in each case.

As to `COC(C)c1ccccc1C#CCCNc1ncnc2ccccc12` (centres unmarked) [compound 137], in the experiment with Spodptera litura, the mortality at 500 ppm fell in the range of 60 to 80%. For the same compound, the mortality at 250 ppm in the experiment with Aphis gossypii was greater than 95%.

As to `COCc1cc(F)ccc1C#CCCNc1ncnc2ccccc12` [compound 139], the mortality at 500 ppm in the experiment with Spodptera litura is greater than 95%. Moreover, the mortality at 250 ppm (in experiment [1]; with Aphis gossypii) was greater than 95% in each case.

On to `COCc1ccc(Cl)cc1C#CCCNc1ncnc2ccccc12` [compound 143], for which the mortality at 500 ppm with Spodptera litura was greater than 95%. For the same compound, the mortality at 250 ppm in the experiment on Aphis gossypii was greater than 95%.

For `COCc1ccc(C)cc1C#CCCNc1ncnc2ccccc12` [compound 144], in the experiment on Spodptera litura, the mortality at 500 ppm is greater than 95%. The mortality at 250 ppm in the experiment on Aphis gossypii was greater than 95%.

Regarding `CC(C)OCc1ccccc1C#CCCNc1ncnc2ccccc12` [compound 154], the mortality at 500 ppm in the experiment with Spodptera litura was in the range of 60 to 80%. Besides, the mortality at 250 ppm in the experiment on Aphis gossypii was greater than 95%.

Regarding `FC(F)(F)c1ccc(C#CCCNc2ncnc3ccccc23)cc1Cl` [compound 177], in the experiment with Spodptera litura, the mortality at 500 ppm was 60 to 80%.

With `Fc1ccccc1Oc1nc(C#CCCNc2ncnc3ccccc23)cs1` [compound 224], the mortality at 500 ppm in the experiment on Spodptera litura was 60 to 80%. Further, the mortality at 250 ppm in the experiment with Aphis gossypii is 60 to 80%.

In the case of `CC(CC#Cc1ccc(Cl)cc1)Nc1ncnc2sccc12` (centres unmarked) [compound 232], in the experiment on Spodptera litura, the mortality at 500 ppm was 60 to 80%. For the same compound, the mortality at 250 ppm in experiment [1] was 80 to 95%; in the experiment with Aphis gossypii, greater than 95%.

For the compound `CC(CC#Cc1ccc(C(F)(F)F)cc1)Nc1ncnc2sccc12` (centres unmarked) [compound 235], the mortality at 500 ppm with Spodptera litura fell in the range of 60 to 80%. In the experiment with Aphis gossypii, the mortality at 250 ppm is greater than 95%.

As to `CC(CC#Cc1ccc(S(F)(F)(F)(F)F)cc1)Nc1ncnc2sccc12` (centres unmarked) [compound 238], in the experiment with Spodptera litura, the mortality at 500 ppm is greater than 95%. Moreover, the mortality at 250 ppm in experiment [1] was 60 to 80%; in the experiment on Aphis gossypii, 80 to 95%.

For `CC(CC#Cc1ccc(F)cc1C(F)(F)F)Nc1ncnc2sccc12` (centres unmarked) [compound 249], the mortality at 500 ppm in the experiment with Spodptera litura was greater than 95%. Besides, the mortality at 250 ppm (in experiment [1]; with Aphis gossypii) was greater than 95% in each case.

`Cc1cc(Cl)ccc1C#CCC(C)Nc1ncnc2sccc12` (centres unmarked) [compound 250]: the mortality at 500 ppm in the experiment with Spodptera litura is greater than 95%. For the same compound, the mortality at 250 ppm in the experiment with Aphis gossypii was greater than 95%.

`CC(CC#Cc1ccc(C(F)(F)F)cc1Cl)Nc1ncnc2sccc12` (centres unmarked) [compound 257]: in the experiment on Spodptera litura, the mortality at 500 ppm was greater than 95%. Also, the mortality at 250 ppm with Aphis gossypii was greater than 95%.

For the compound `CC(CC#Cc1ccc(Cl)cc1C(F)(F)F)Nc1ncnc2sccc12` (centres unmarked) [compound 258], in the experiment on Spodptera litura, the mortality at 500 ppm was greater than 95%. In addition, the mortality at 250 ppm in experiment [1] was 80 to 95%; in the experiment with Aphis gossypii, greater than 95%.

Regarding `Cc1cc(C)c(C#CCC(C)Nc2ncnc3sccc23)c(C)c1` (centres unmarked) [compound 263], the mortality at 250 ppm (in experiment [1]; with Aphis gossypii) was 60 to 80% in each case.

`CC(CC#Cc1ncccc1C(F)(F)F)Nc1ncnc2sccc12` (centres unmarked) [compound 264]: the mortality at 500 ppm in the experiment with Spodptera litura lay in the range of 60 to 80%. For the same compound, the mortality at 250 ppm (in experiment [1]; with Aphis gossypii) was 60 to 80% in each case.

Consider `CCC(CC#Cc1ccccc1)Nc1ncnc2sccc12` (centres unmarked) [compound 267], for which the mortality at 250 ppm in experiment [1] was 60 to 80%; in the experiment on Aphis gossypii, greater than 95%.

On to `CCCC(CC#Cc1ccccc1)Nc1ncnc2sccc12` (centres unmarked) [compound 268], for which the mortality at 500 ppm in the experiment with Spodptera litura fell in the range of 60 to 80%. Further, the mortality at 250 ppm in the experiment with Aphis gossypii was greater than 95%.

For the compound `CC(CC#Cc1ccc(C(F)(F)F)cc1)Nc1ncnc2ccccc12` (centres unmarked) [compound 275], the mortality at 500 ppm in the experiment on Spodptera litura was greater than 95%. The mortality at 250 ppm in the experiment with Aphis gossypii is greater than 95%.

`Cc1ccc(C#CCC(C)Nc2ncnc3ccccc23)cc1` (centres unmarked) [compound 279]: the mortality at 500 ppm in the experiment on Spodptera litura lay in the range of 80 to 95%. Besides, the mortality at 250 ppm with Aphis gossypii is greater than 95%.

As to `CC(CC#Cc1ccc(C(F)(C(F)(F)F)C(F)(F)F)cc1Cl)Nc1ncnc2ccccc12` (centres unmarked) [compound 281], the mortality at 250 ppm (in experiment [1]; in the experiment on Aphis gossypii) was greater than 95% throughout.

As for `CC(CC#Cc1ccc(S(F)(F)(F)(F)F)cc1Cl)Nc1ncnc2ccccc12` (centres unmarked) [compound 283], the mortality at 250 ppm is greater than 95% in experiment [1] and 80 to 95% with Aphis gossypii.

For `CCOC(=O)C(CC#Cc1ccccc1C(F)(F)F)Nc1ncnc2ccccc12` (centres unmarked) [compound 304], the mortality at 250 ppm (in experiment [1]; in the experiment on Aphis gossypii) was greater than 95% each time.

Take `COCc1ccccc1C#CCCNc1ncnc2ccc(F)cc12` [compound 317]: the mortality at 500 ppm in the experiment on Spodptera litura is 60 to 80%. Moreover, the mortality at 250 ppm in the experiment on Aphis gossypii is greater than 95%.

As for `COCc1ccccc1C#CCCNc1ncnc2cc(F)c(F)cc12` [compound 319], the mortality at 500 ppm with Spodptera litura was 60 to 80%. Further, in the experiment on Aphis gossypii, the mortality at 250 ppm is greater than 95%.

As for `COCc1ccccc1C#CCCNc1ncnc2ccc(SC)cc12` [compound 332], in the experiment with Spodptera litura, the mortality at 500 ppm fell in the range of 60 to 80%.

`COCc1ccccc1C#CCCNc1ncnc2ccc(-c3ccccc3)cc12` [compound 333]: the mortality at 250 ppm (in experiment [1]; in the experiment with Aphis gossypii) was greater than 95% throughout.

In the case of `COCc1ccccc1C#CCCNc1ncnc2ccc(-c3ccc(F)cc3)cc12` [compound 336], the mortality at 500 ppm in the experiment with Spodptera litura was 60 to 80%. The mortality at 250 ppm with Aphis gossypii lay within 80 to 95%.

As to `CC(CC#Cc1ccccc1C(F)(F)F)Nc1ncnc2c(F)cccc12` (centres unmarked) [compound 343], in the experiment with Spodptera litura, the mortality at 500 ppm was greater than 95%. In the experiment with Aphis gossypii, the mortality at 250 ppm is greater than 95%.

In the case of `CC(CC#Cc1ccc(Cl)cc1C(F)(F)F)Nc1ncnc2cccc(F)c12` (centres unmarked) [compound 346], the mortality at 250 ppm (in experiment [1]; in the experiment with Aphis gossypii) was greater than 95% each time.

On to `CC(CC#Cc1ccc(Cl)cc1C(F)(F)F)Nc1ncnc2c(Cl)cccc12` (centres unmarked) [compound 349], for which the mortality at 250 ppm in experiment [1] is 80 to 95%; with Aphis gossypii it was greater than 95%.

On to `CC(CC#Cc1ccc(Cl)cc1C(F)(F)F)Nc1ncnc2cccc(Cl)c12` (centres unmarked) [compound 350], for which the mortality at 250 ppm in experiment [1] was greater than 95%; in the experiment with Aphis gossypii, 80 to 95%.

Consider `CC(CC#Cc1ccc(Cl)cc1C(F)(F)F)Nc1ncnc2c(C(F)(F)F)cccc12` (centres unmarked) [compound 351], for which the mortality at 250 ppm (in experiment [1]; in the experiment on Aphis gossypii) was greater than 95% throughout.

`COCc1ccccc1C#CCCNc1ncnc(C)c1Cl` [compound 362]: the mortality at 250 ppm (in experiment [1]; in the experiment with Aphis gossypii) was greater than 95% throughout.

As for `CC(F)c1ncnc(NCCC#Cc2ccccc2)c1I` (centres unmarked) [compound 374], the mortality at 500 ppm in the experiment on Spodptera litura is greater than 95%. Also, the mortality at 250 ppm in the experiment with Aphis gossypii is greater than 95%.

Turning to `CC(F)c1ncnc(NCCC#Cc2ccccc2)c1Br` (centres unmarked) [compound 375], in the experiment with Spodptera litura, the mortality at 500 ppm was 80 to 95%. Besides, in the experiment on Aphis gossypii, the mortality at 250 ppm fell in the range of 60 to 80%.

On to `CC(F)c1ncnc(NCCC#Cc2ccccc2)c1Cl` (centres unmarked) [compound 376], for which the mortality at 250 ppm (in experiment [1]; in the experiment with Aphis gossypii) was greater than 95% in each case.

Turning to `CC(F)c1ncnc(NCCC#Cc2ccc(Cl)cc2C(F)(F)F)c1Cl` (centres unmarked) [compound 377], the mortality at 500 ppm in the experiment with Spodptera litura is 80 to 95%. The mortality at 250 ppm in the experiment on Aphis gossypii is greater than 95%.

Regarding `COCc1ccccc1C#CCCNc1ncnc2ncccc12` [compound 380], the mortality at 500 ppm in the experiment with Spodptera litura was 60 to 80%. Also, in the experiment with Aphis gossypii, the mortality at 250 ppm is greater than 95%.

Consider `CC(CC#Cc1ccccc1)Nc1ncnc(C(C)F)c1I` (centres unmarked) [compound 381], for which the mortality at 500 ppm with Spodptera litura lay in the range of 60 to 80%. Further, the mortality at 250 ppm in the experiment on Aphis gossypii was in the range of 60 to 80%.

For the compound `CC(CC#Cc1ccc(Cl)cc1C(F)(F)F)Nc1ncnc(C(C)Cl)c1Cl` (centres unmarked) [compound 383], the mortality at 250 ppm (in experiment [1]; with Aphis gossypii) was greater than 95% throughout.

In the case of `Cc1ncnc(NC(C)CC#Cc2ccc(Cl)cc2C(F)(F)F)c1Cl` (centres unmarked) [compound 385], the mortality at 250 ppm (in experiment [1]; in the experiment on Aphis gossypii) was greater than 95% throughout.

Turning to `Cc1ncnc(NC(C)CC#Cc2ccc(Cl)cc2C(F)(F)F)c1I` (centres unmarked) [compound 386], the mortality at 250 ppm (in experiment [1]; with Aphis gossypii) was greater than 95% throughout.
